Test results: PubChem BioAssay AID1347073 (National Center for Advancing Translational Sciences (NCATS), 2019)
The campaign covered roughly 45,000 compounds. About 200 (0.44%) were called active. Inconclusive results (about 7%) are left out. Calls follow the shape of the dose curve; as a rule, active = well fitted activation curve with a large enough effect; inconclusive = small, poorly fitted or top-dose-only effect; inactive = no such curve, though single readings can be large or run the other way. The list shows a part of the results.

assay: qHTS of TDP-43 Inhibitors: NCGC Sytravon Library Screen; details: yeast TDP-43 toxicity rescue, BacTiter-Glo growth, 24 h; series mostly up to 46.1 µM; growth rescue (activation): at the top concentration; also: 0% is about no effect; nearly all actives have a fitted effect of over 55% in size
Summary of the method: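 TDP-43-expressing yeast, pregrown in raffinose, seeded at OD600 0.02 in galactose medium with compound for 24 hr at 30 deg C. Growth read by BacTiter-Glo luminescence, so rescue of toxicity appears as activation.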

Row | SMILES | growth rescue (activation)
1 | Cc1cnc(C(=O)OCC(=O)Nc2ccc(C)c(S(=O)(=O)N3CCOCC3)c2)cn1 | inactive: 6.6%
2 | CCCc1ccc(OCc2ccc(C(=O)NCc3cccnc3)o2)c(OC)c1 | inactive: -5.09%
3 | CN(Cc1ccc(-n2cccn2)cc1)Cc1nc(-c2cnccn2)no1 | inactive: -3.73%
4 | COc1ccc(N2CCOCC2)c(NC(=O)c2cc3ccccc3o2)c1 | inactive: 22.6%
5 | Cc1cc(C(=O)COc2ccc(C#N)cc2)c(C)n1CC1CCCO1 (stereo not given) | inactive: 18.6%
6 | CC(=O)Nc1ccc(S(=O)(=O)Nc2nc3ccccc3nc2N2CCOCC2)cc1 | inactive: 7.75%
7 | COC(=O)C1CCN(C(=O)CSc2ccccc2)CC1 | inactive: -15.4%
8 | O=C(Nc1ccc(-c2nc3ccccc3[nH]2)cc1)c1c(F)c(F)c(F)c(F)c1F | inactive: 1.3%
9 | OCCCNc1ncnc2c1[nH]c1ccccc12 | inactive: -2.27%
10 | CCOc1ccc(S(=O)(=O)N2CCN(C(=O)Cc3n[nH]c(=O)c4ccccc34)CC2)cc1 | inactive: -6.72%
11 | CC(=O)NC(Cc1cc(C)ccc1C)C(=O)N1CCN(C(=O)c2ccc(Br)cc2)CC1 (stereo not given) | inactive: 8.22%
12 | CCOC(=O)c1sc2nc(C)cc(-c3ccccc3)c2c1N | inactive: 12.2%
13 | O=C(NC1CCC(O)CC1)c1cccc2cccnc12 (stereo not given) | inactive: -4.82%
14 | Cc1cccc(C)c1NC(=O)CN | inactive: 1.27%
15 | CC1(C(=O)Nc2ccc(Cl)c(Cl)c2)CCN1C(=O)CCC1CCCC1 (stereo not given) | inactive: 18.9%
16 | CC(=O)Nc1ccc(NC(=O)COC(=O)c2cnccn2)cc1 | inactive: 3.39%
17 | COc1ccccc1Nc1nnc(SCC(=O)N2CC(=O)Nc3ccccc32)s1 | inactive: -18.6%
18 | c1ccc(COc2ccc(CN3CCN(c4ccccn4)CC3)cc2)cc1 | inactive: 15.4%
19 | O=C(COC(=O)c1ccc(Br)o1)Nc1cccc(S(=O)(=O)N2CCOCC2)c1 | inactive: -0.715%
20 | COc1ccc(NC(=S)NCc2ccc(S(N)(=O)=O)cc2)cc1OC | inactive: -14.1%
21 | COc1ccc2c(C)cc(SCC(=O)NCCN3C(=O)CSC3=O)nc2c1 | inactive: 16.9%
22 | O=C1Nc2ccccc2/C1=N\N1CCOCC1 | inactive: -4.93%
23 | COc1ccc(OCc2nnc(SCC(=O)Nc3ccccc3F)o2)cc1 | inactive: 3.03%
24 | CC(=O)Nc1ccc(S(=O)(=O)NCC(=O)OCC(=O)N2CCCc3ccccc32)cc1 | inactive: -18.7%

Row | SMILES | growth rescue (activation)
25 | CCOc1ccc(S(=O)(=O)N2CCN(C(=O)c3cc(C4CC4)nn3-c3ccccc3)CC2)cc1 | inactive: -1.58%
26 | CN(Cc1cccnc1)Cc1cn(C)nc1-c1ccc(Oc2ccccc2)cc1 | inactive: 5.21%
27 | CCc1cccc(NC(=O)CNS(=O)(=O)c2ccc3nc(C)sc3c2)c1 | inactive: 11.1%
28 | COc1ccc(S(=O)(=O)Nc2ccccc2C(=O)N2CCOCC2)cc1F | inactive: -8.02%
29 | Cc1c(C)c(C)c(S(=O)(=O)Nc2ccc3[nH]c(=O)[nH]c3c2)c(C)c1C | inactive: -0.912%
30 | Nc1ccc(C(=O)OCc2nc3ccccc3[nH]2)cc1 | inactive: -5.78%
31 | COc1cccc(CNc2nc3cc(-c4cccc(OC)c4)sc3c(=O)n2C)c1 | inactive: 25.2%
32 | O=C(O)c1cc(S(=O)(=O)O)cc(Nc2c3ccccc3nc3ccccc23)c1O | inactive: -3.47%
33 | O=C(CN(C(=O)c1csnn1)c1ccccc1)NCCc1ccccc1 | inactive: 6.05%
34 | O=C(NCCCN1CCN(Cc2ccccc2)CC1)C1CCN(S(=O)(=O)N2CCC3(CC2)OCCO3)CC1 | inactive: -0.836%
35 | O=C(CCn1c(=O)oc2ccccc21)Nc1ccc(N2CCOCC2)cc1 | inactive: 8.82%
36 | O=C(/C=C/Nc1ccc(S(=O)(=O)Nc2ncccn2)cc1)c1cccs1 | inactive: 24.7%
37 | CCOc1ccc(OCC(=O)Nc2nccs2)cc1 | inactive: -15.6%
38 | CS(=O)(=O)c1ccc(C(=O)OCC(=O)NCc2cccs2)cc1[N+](=O)[O-] | inactive: 10.6%
39 | CN(C)S(=O)(=O)c1ccc(C(=O)NCCN=C2NS(=O)(=O)c3ccccc32)cc1 | inactive: 9.13%
40 | O=C(NCC1CCCCC1)c1cccc([N+](=O)[O-])c1 | inactive: 14.6%
41 | COc1cccc(C2=NOC(C(=O)Nc3cccnc3Cl)C2)c1 (stereo not given) | inactive: -5.8%
42 | Cc1cc(C)cc(NC(=O)Cc2ccc(-n3cccc3)cc2)c1 | inactive: 7.97%
43 | NC(=O)C1CCN(C(=O)c2cnn(-c3ccccc3)c2NC(=O)c2cccc(F)c2)CC1 | inactive: 6.32%
44 | CC1CCc2onc(C(=O)O)c2C1 (stereo not given) | inactive: 12.1%
45 | CCOC(=O)C1(C)CCCN(C(=O)c2cc(C#N)cs2)C1 (stereo not given) | inactive: 8.15%
46 | COc1ccccc1OCCn1c(=O)n(C)c2ccccc21 | inactive: 6.31%
47 | Cc1ccc(Nc2nnc(SC3CCOC3=O)s2)cc1 (stereo not given) | inactive: -6.95%
48 | Cc1ccc(NC(=O)CCNS(=O)(=O)c2cccc3nonc23)cc1Cl | inactive: 3.64%

Row | SMILES | growth rescue (activation)
49 | COc1cc(/C=C/C(=O)N2CCN(C(=O)/C=C/c3cc(OC)c(OC)c(OC)c3)CC2)cc(OC)c1OC | inactive: -0.636%
50 | Cc1ccccc1NC(=S)NCCc1ccc(S(N)(=O)=O)cc1 | inactive: 17.5%
51 | Cc1cccc(N2CCN(C(=O)c3ccc4[nH]c(C)c(C)c4c3)CC2)c1C | inactive: 0.568%
52 | Cn1c(Cc2ccccc2)nnc1SCC(=O)NC1CC1 | inactive: -5.59%
53 | CCc1nnc(SCC(=O)Nc2ccccc2)n1CC1CCCO1 (stereo not given) | inactive: -1.78%
54 | COc1ccc(CNc2nc3ccccc3n2CCN2CCCCC2)cc1 | inactive: 7.34%
55 | O=c1oc2cc(O)ccc2cc1-c1nnc(Nc2ccccc2F)s1 | inactive: 5.83%
56 | Cc1ccc(C)c(NC(=O)C(C)N2C(=O)c3ccccc3C2=O)c1 (stereo not given) | inactive: 14.3%
57 | CC(C)Oc1ccccc1C1Nc2ccccc2C(=O)N1c1ccc2c(c1)OCCO2 (stereo not given) | inactive: 2.32%
58 | O=C(O)c1ccc2c(c1)S(=O)(=O)N=C1CCCCCN12 | inactive: -25.4%
59 | CC12CN3CC(C)(CN(C1)C3c1ccccc1Cl)C2O (stereo not given) | inactive: -37.4%
60 | CCC(COC)NC(=O)CCc1nnc(Cc2cccc(C(F)(F)F)c2)o1 (stereo not given) | inactive: 2.27%
61 | CC(NC(=O)c1cc(F)c(F)cc1Cl)C1CC2CCC1C2 (stereo not given) | inactive: 18.1%
62 | Cc1nnc(SCC2=C(C(=O)O)N3C(=O)C(NC(=O)Cn4nc(C)c(Cl)c4C)C3SC2)s1 (stereo not given) | inactive: -2.83%
63 | O=C(Nc1ccc(Cl)cc1)C1Cc2c(-c3ccc(Cl)cc3)ccnc2O1 (stereo not given) | inactive: -4.34%
64 | COC(=O)c1ccc(C(=O)OC)c(NC(=S)N2CCN(C)CC2)c1 | inactive: 1.01%
65 | CCOC(=O)N1CCN(CC(O)COc2ccccc2C(C)(C)C)CC1 (stereo not given) | inactive: -7.94%
66 | Cc1nn(C)cc1CNCc1c(C(=O)N2CCCCC2)nc2c(C)cccn12 | inactive: 3.97%
67 | Cc1cc(SCC(=O)NC2CC2)nc2ccccc12 | inactive: 32.9%
68 | CCC(C)NC(=O)Cn1c(=O)sc2ccccc21 (stereo not given) | inactive: 5.46%
69 | Cc1ccc(NCc2nnc3n2CCCCC3)c(C)c1 | inactive: -12.7%
70 | NNC(=O)c1ccc(CSc2n[nH]c(=O)[nH]c2=O)cc1 | inactive: -4.06%
